# Laboratory results taken from the supplement of paper PMC8728848.
# The other results are listed elsewhere or left out.
# B1: SAG3 (Toxoplasma gondii), Q9BJ39 (protein)
# chain: MQLWRRRAAGPASLGRQSLPLGCFFAAFGLCVLSAILGTGERGLFVAAGNSRRKITYFGTLTQKAPNWYRCSSTRAKEEVVGHVTLNKEHPDMTIECVDDGLGGEFLPLEGARSSYPRVCHIDAKDQDDCERNRGFLTDYIPGAKQYWYKIEKVEQNGEQSVLYKFTVPWILLPPAKQRYKVGCRYPNHEYCFVEVTVEPTPPMVEGKRVTCGYSESGPVNLEVDLSKNANFIEIRCGEQHHPQPSTYTLQYCSGDSVDPQKCSPQSLTNIFYDYSSSWWKGKLNGPDGATLTIPPGGFPEEDKSFLVGCSLTVDGPPFCNVKVRVAGNPRKWERGGGGHPGSGGLQPGTDGETQAGTGSSAGASSRMASVALAFLLGLLVHVAA
# Columns and labels:
# Assay in all cases: glycan array binding signal (z-score within array); higher = stronger binding
# Conditions in all cases: glycan notation: IUPAC condensed, linker removed
# [1] = molecular target: GlcNAc(a1-4)Gal(b1-4)GalNAc
# Procedure, shortened: (§1)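 The binding signal is a Z-score computed within each array and averaged over linkers. Arrays of the same protein sequence at different concentrations or buffers were also averaged together. Data originate from 3228 arrays in the Consortium for Functional Glycomics database, kept only where the protein sequence was available.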
# [2] = molecular target: GlcNAc(a1-4)Gal(b1-4)GlcNAc
# Procedure, shortened: as §1
# [3] = molecular target: GlcNAc(a1-4)Gal(b1-4)GlcNAc(b1-3)Gal(b1-4)Glc
# Procedure, shortened: as §1
# [4] = molecular target: GlcNAc(a1-4)Gal(b1-4)GlcNAc(b1-3)Gal(b1-4)GlcNAc
# Procedure, shortened: as §1
# [5] = molecular target: GlcNAc(a1-4)Gal(b1-4)GlcNAc(b1-3)Gal(b1-4)GlcNAc(b1-3)Gal(b1-4)GlcNAc
# Procedure, shortened: as §1
# [6] = molecular target: GlcNAc(a1-4)Gal(b1-4)GlcNAc(b1-3)Gal(b1-4)[Fuc(a1-3)]GlcNAc(b1-3)Gal(b1-4)[Fuc(a1-3)]GlcNAc
# Procedure, shortened: as §1
# [7] = molecular target: GlcNAc(a1-6)Gal(b1-4)GlcNAc
# Procedure, shortened: as §1
# [8] = molecular target: GlcNAc(b1-2)Gal(b1-3)GalNAc
# Procedure, shortened: as §1
# [9] = molecular target: GlcNAc(b1-2)Man(a1-3)[GlcNAc(b1-2)Man(a1-6)]Man(b1-4)GlcNAc(b1-4)GlcNAc
# Procedure, shortened: as §1
# [10] = molecular target: GlcNAc(b1-2)Man(a1-3)[GlcNAc(b1-2)Man(a1-6)]Man(b1-4)GlcNAc(b1-4)[Fuc(a1-6)]GlcNAc
# Procedure, shortened: as §1
# [11] = molecular target: GlcNAc(b1-2)[GlcNAc(b1-4)]Man(a1-3)[GlcNAc(b1-2)Man(a1-6)]Man(b1-4)GlcNAc(b1-4)GlcNAc
# Procedure, shortened: as §1
# GlcNAc(b1-3)Gal = molecular target: GlcNAc(b1-3)Gal
# Procedure, shortened: as §1
# [12] = molecular target: GlcNAc(b1-3)Gal(b1-3)GalNAc
# Procedure, shortened: as §1
# GlcNAc(b1-3)Gal(b1-4)Glc = molecular target: GlcNAc(b1-3)Gal(b1-4)Glc
# Procedure, shortened: as §1
# [13] = molecular target: GlcNAc(b1-3)Gal(b1-4)GlcNAc
# Procedure, shortened: as §1
# [14] = molecular target: GlcNAc(b1-3)Gal(b1-4)GlcNAc(b1-3)Gal(b1-4)GlcNAc
# Procedure, shortened: as §1
# GlcNAc(b1-3)GalNAc = molecular target: GlcNAc(b1-3)GalNAc
# Procedure, shortened: as §1
# GlcNAc(b1-3)Man = molecular target: GlcNAc(b1-3)Man
# Procedure, shortened: as §1
# [15] = molecular target: GlcNAc(b1-3)[GlcNAc(b1-4)][GlcNAc(b1-6)]GlcNAc
# Procedure, shortened: as §1
# [16] = molecular target: GlcNAc(b1-3)[GlcNAc(b1-6)]Gal(b1-4)GlcNAc
# Procedure, shortened: as §1
# [17] = molecular target: GlcNAc(b1-3)[GlcNAc(b1-6)]GalNAc
# Procedure, shortened: as §1
# [18] = molecular target: GlcNAc(b1-4)Gal(b1-4)GlcNAc
# Procedure, shortened: as §1
# GlcNAc(b1-4)GlcNAc = molecular target: GlcNAc(b1-4)GlcNAc
# Procedure, shortened: as §1
# [19] = molecular target: GlcNAc(b1-4)GlcNAc(b1-4)GlcNAc
# Procedure, shortened: as §1
# [20] = molecular target: GlcNAc(b1-4)GlcNAc(b1-4)GlcNAc(b1-4)GlcNAc(b1-4)GlcNAc
# Procedure, shortened: as §1
# [21] = molecular target: GlcNAc(b1-4)GlcNAc(b1-4)GlcNAc(b1-4)GlcNAc(b1-4)GlcNAc(b1-4)GlcNAc
# Procedure, shortened: as §1
# [22] = molecular target: GlcNAc(b1-4)[GlcNAc(b1-6)]GalNAc
# Procedure, shortened: as §1
# [23] = molecular target: GlcNAc(b1-6)Gal(b1-4)GlcNAc
# Procedure, shortened: as §1
# GlcNAc(b1-6)GalNAc = molecular target: GlcNAc(b1-6)GalNAc
# Procedure, shortened: as §1
# GlcNAc3Prop(b1-4)GlcNAc = molecular target: GlcNAc3Prop(b1-4)GlcNAc
# Procedure, shortened: as §1
# [24] = molecular target: GlcNAc6S(b1-3)Gal(b1-4)GlcNAc
# Procedure, shortened: as §1
# Kdn(a2-3)Gal(b1-3)GalNAc = molecular target: Kdn(a2-3)Gal(b1-3)GalNAc
# Procedure, shortened: as §1
# Kdn(a2-3)Gal(b1-3)GlcNAc = molecular target: Kdn(a2-3)Gal(b1-3)GlcNAc
# Procedure, shortened: as §1
# Kdn(a2-3)Gal(b1-4)Glc = molecular target: Kdn(a2-3)Gal(b1-4)Glc
# Procedure, shortened: as §1
# Kdn(a2-3)Gal(b1-4)GlcNAc = molecular target: Kdn(a2-3)Gal(b1-4)GlcNAc
# Procedure, shortened: as §1
binder,measurement,setting,value
B1,glycan array binding signal (z-score),[1],0.196
same,glycan array binding signal (z-score),[2],0.067
same,glycan array binding signal (z-score),[3],-0.133
same,glycan array binding signal (z-score),[4],-0.116
same,glycan array binding signal (z-score),[5],0.115
same,glycan array binding signal (z-score),[6],-0.01
same,glycan array binding signal (z-score),[7],-0.311
same,glycan array binding signal (z-score),[8],-0.576
same,glycan array binding signal (z-score),[9],-0.352
same,glycan array binding signal (z-score),[10],0.719
same,glycan array binding signal (z-score),[11],0.578
same,glycan array binding signal (z-score),GlcNAc(b1-3)Gal,-0.293
same,glycan array binding signal (z-score),[12],-0.112
same,glycan array binding signal (z-score),GlcNAc(b1-3)Gal(b1-4)Glc,-0.058
same,glycan array binding signal (z-score),[13],-0.366
same,glycan array binding signal (z-score),[14],-0.657
same,glycan array binding signal (z-score),GlcNAc(b1-3)GalNAc,-0.44
same,glycan array binding signal (z-score),GlcNAc(b1-3)Man,0.13
same,glycan array binding signal (z-score),[15],-0.37
same,glycan array binding signal (z-score),[16],-0.317
same,glycan array binding signal (z-score),[17],-0.039
same,glycan array binding signal (z-score),[18],-0.247
same,glycan array binding signal (z-score),GlcNAc(b1-4)GlcNAc,-0.074
same,glycan array binding signal (z-score),[19],-0.526
same,glycan array binding signal (z-score),[20],-0.599
same,glycan array binding signal (z-score),[21],0.148
same,glycan array binding signal (z-score),[22],-0.328
same,glycan array binding signal (z-score),[23],0.257
same,glycan array binding signal (z-score),GlcNAc(b1-6)GalNAc,-0.294
same,glycan array binding signal (z-score),GlcNAc3Prop(b1-4)GlcNAc,-0.494
same,glycan array binding signal (z-score),[24],-0.382
same,glycan array binding signal (z-score),Kdn(a2-3)Gal(b1-3)GalNAc,0.108
same,glycan array binding signal (z-score),Kdn(a2-3)Gal(b1-3)GlcNAc,-0.331
same,glycan array binding signal (z-score),Kdn(a2-3)Gal(b1-4)Glc,0.107
same,glycan array binding signal (z-score),Kdn(a2-3)Gal(b1-4)GlcNAc,0.101
